Assay results taken from publication PMC9911399, “Two distinct binding modes provide the RNA-binding protein RbFox with extraordinary sequence specificity”.
Substitutions are numbered along the chain they refer to; changes in the protein carry UniProt numbers. Some of the results follow.

T1: RBFOX1 RRM (Homo sapiens, UniProt Q9NWB1 109-208)
T1 sequence: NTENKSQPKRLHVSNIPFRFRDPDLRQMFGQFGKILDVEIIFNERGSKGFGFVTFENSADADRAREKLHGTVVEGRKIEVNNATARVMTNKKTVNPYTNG

B1: UAGGGUU (DNA:RNA)
RNA: GGGAGACCGGAAUUCAGAUUGUCCUAGGGUUUUAAAUCCCGUCGUAGCCACCA
DNA 1: CAATCTGAATTCCGGTCTCCC
DNA 2: TGGTGGCTACGACGGGATT
B2: AGAGCAC (DNA:RNA)
RNA: B1 RNA with U25A, A26G, G27A, G29C, U30A, U31C
DNA 1: CAATCTGAATTCCGGTCTCCC
DNA 2: TGGTGGCTACGACGGGATT
B3: UAGGGUC (DNA:RNA)
RNA: B1 RNA with U31C
DNA 1: CAATCTGAATTCCGGTCTCCC
DNA 2: TGGTGGCTACGACGGGATT
B4: CAAGGCU (DNA:RNA)
RNA: B1 RNA with U25C, G27A, U30C
DNA 1: CAATCTGAATTCCGGTCTCCC
DNA 2: TGGTGGCTACGACGGGATT
B5: GGUACAU (DNA:RNA)
RNA: B1 RNA with U25G, A26G, G27U, G28A, G29C, U30A
DNA 1: CAATCTGAATTCCGGTCTCCC
DNA 2: TGGTGGCTACGACGGGATT
B6: AAAAGAA (DNA:RNA)
RNA: B1 RNA with U25A, G27A, G28A, U30A, U31A
DNA 1: CAATCTGAATTCCGGTCTCCC
DNA 2: TGGTGGCTACGACGGGATT
B7: UACAGGU (DNA:RNA)
RNA: B1 RNA with G27C, G28A, U30G
DNA 1: CAATCTGAATTCCGGTCTCCC
DNA 2: TGGTGGCTACGACGGGATT
B8: AGCCGAA (DNA:RNA)
RNA: B1 RNA with U25A, A26G, G27C, G28C, U30A, U31A
DNA 1: CAATCTGAATTCCGGTCTCCC
DNA 2: TGGTGGCTACGACGGGATT
B9: CGUUGUC (DNA:RNA)
RNA: B1 RNA with U25C, A26G, G27U, G28U, U31C
DNA 1: CAATCTGAATTCCGGTCTCCC
DNA 2: TGGTGGCTACGACGGGATT
B10: AGGUCGA (DNA:RNA)
RNA: B1 RNA with U25A, A26G, G28U, G29C, U30G, U31A
DNA 1: CAATCTGAATTCCGGTCTCCC
DNA 2: TGGTGGCTACGACGGGATT
B11: GACAUCU (DNA:RNA)
RNA: B1 RNA with U25G, G27C, G28A, G29U, U30C
DNA 1: CAATCTGAATTCCGGTCTCCC
DNA 2: TGGTGGCTACGACGGGATT
B12: GGCGGCU (DNA:RNA)
RNA: B1 RNA with U25G, A26G, G27C, U30C
DNA 1: CAATCTGAATTCCGGTCTCCC
DNA 2: TGGTGGCTACGACGGGATT
B13: GAGGACC (DNA:RNA)
RNA: B1 RNA with U25G, G29A, U30C, U31C
DNA 1: CAATCTGAATTCCGGTCTCCC
DNA 2: TGGTGGCTACGACGGGATT
B14: ACGAGUG (DNA:RNA)
RNA: B1 RNA with U25A, A26C, G28A, U31G
DNA 1: CAATCTGAATTCCGGTCTCCC
DNA 2: TGGTGGCTACGACGGGATT
B15: GCUUGAG (DNA:RNA)
RNA: B1 RNA with U25G, A26C, G27U, G28U, U30A, U31G
DNA 1: CAATCTGAATTCCGGTCTCCC
DNA 2: TGGTGGCTACGACGGGATT
B16: ACCGUAA (DNA:RNA)
RNA: B1 RNA with U25A, A26C, G27C, G29U, U30A, U31A
DNA 1: CAATCTGAATTCCGGTCTCCC
DNA 2: TGGTGGCTACGACGGGATT
B17: UAGGGAU (DNA:RNA)
RNA: B1 RNA with U30A
DNA 1: CAATCTGAATTCCGGTCTCCC
DNA 2: TGGTGGCTACGACGGGATT
B18: AAACCCC (DNA:RNA)
RNA: B1 RNA with U25A, G27A, G28C, G29C, U30C, U31C
DNA 1: CAATCTGAATTCCGGTCTCCC
DNA 2: TGGTGGCTACGACGGGATT
B19: ACAAAUU (DNA:RNA)
RNA: B1 RNA with U25A, A26C, G27A, G28A, G29A
DNA 1: CAATCTGAATTCCGGTCTCCC
DNA 2: TGGTGGCTACGACGGGATT
B20: GACUCAG (DNA:RNA)
RNA: B1 RNA with U25G, G27C, G28U, G29C, U30A, U31G
DNA 1: CAATCTGAATTCCGGTCTCCC
DNA 2: TGGTGGCTACGACGGGATT

The binders below were run against T1, RBFOX1 RRM (assay: EMSA; HiTS-Eq, 1 nM pool, 10 min; buffer printed only for the single-RNA assays: 10 mM Tris pH 7.5, 150 mM NaCl, 3.4 mM EDTA, 0.001% NP-40, 30 C). Conditions: tags: His6 N-terminal (pET28a); label: 5' 32P.
Method in brief: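 A pool of RNA with 7 randomized nucleotides, 5′-radiolabelled and with DNA-annealed flanks, was equilibrated at 1 nM for 10 min in 50 µL with purified RbFox RRM, wild type or mutant, across increasing protein concentrations. Free RNA was separated by 8% native PAGE, excised, reverse-transcribed, barcoded by PCR and sequenced. Relative association constants were obtained from read-count changes of each RNA species versus the control reaction and normalised to the cognate motif.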

In order of rising binding signal:
1. B16  0.000487 KA relative to UGCAUGU
2. B19  0.000493 KA relative to UGCAUGU
3. B18  0.00111 KA relative to UGCAUGU
4. B6  0.00178 KA relative to UGCAUGU
5. B11  0.00384 KA relative to UGCAUGU
6. B5  0.00481 KA relative to UGCAUGU
7. B2  0.00559 KA relative to UGCAUGU
8. B8  0.00653 KA relative to UGCAUGU
9. B13  0.00659 KA relative to UGCAUGU
10. B17  0.00709 KA relative to UGCAUGU
11. B4  0.00732 KA relative to UGCAUGU
12. B7  0.00878 KA relative to UGCAUGU
13. B12  0.0115 KA relative to UGCAUGU
14. B10  0.0134 KA relative to UGCAUGU
15. B14  0.0145 KA relative to UGCAUGU
16. B3  0.015 KA relative to UGCAUGU
17. B9  0.015 KA relative to UGCAUGU
18. B20  0.0163 KA relative to UGCAUGU
19. B1  0.0189 KA relative to UGCAUGU
20. B15  0.0353 KA relative to UGCAUGU
